Hit rate of the full screen: of about 310,000 compounds, about 14,000 (4.5%) showed an effect of 50% or more. The effect is printed as a negative number. The list shows a part of the results.
Target: human ether-à-go-go-related gene (hERG) potassium channel (human, UniProt Q12809)
Test: primary screen, population patch clamp on CHO cells stably expressing hERG
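Further: peak tail current of the secondary pulse compared with the same well before compound.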

Chain of human ether-à-go-go-related gene (hERG) potassium channel (Q12809 whole entry, looked up): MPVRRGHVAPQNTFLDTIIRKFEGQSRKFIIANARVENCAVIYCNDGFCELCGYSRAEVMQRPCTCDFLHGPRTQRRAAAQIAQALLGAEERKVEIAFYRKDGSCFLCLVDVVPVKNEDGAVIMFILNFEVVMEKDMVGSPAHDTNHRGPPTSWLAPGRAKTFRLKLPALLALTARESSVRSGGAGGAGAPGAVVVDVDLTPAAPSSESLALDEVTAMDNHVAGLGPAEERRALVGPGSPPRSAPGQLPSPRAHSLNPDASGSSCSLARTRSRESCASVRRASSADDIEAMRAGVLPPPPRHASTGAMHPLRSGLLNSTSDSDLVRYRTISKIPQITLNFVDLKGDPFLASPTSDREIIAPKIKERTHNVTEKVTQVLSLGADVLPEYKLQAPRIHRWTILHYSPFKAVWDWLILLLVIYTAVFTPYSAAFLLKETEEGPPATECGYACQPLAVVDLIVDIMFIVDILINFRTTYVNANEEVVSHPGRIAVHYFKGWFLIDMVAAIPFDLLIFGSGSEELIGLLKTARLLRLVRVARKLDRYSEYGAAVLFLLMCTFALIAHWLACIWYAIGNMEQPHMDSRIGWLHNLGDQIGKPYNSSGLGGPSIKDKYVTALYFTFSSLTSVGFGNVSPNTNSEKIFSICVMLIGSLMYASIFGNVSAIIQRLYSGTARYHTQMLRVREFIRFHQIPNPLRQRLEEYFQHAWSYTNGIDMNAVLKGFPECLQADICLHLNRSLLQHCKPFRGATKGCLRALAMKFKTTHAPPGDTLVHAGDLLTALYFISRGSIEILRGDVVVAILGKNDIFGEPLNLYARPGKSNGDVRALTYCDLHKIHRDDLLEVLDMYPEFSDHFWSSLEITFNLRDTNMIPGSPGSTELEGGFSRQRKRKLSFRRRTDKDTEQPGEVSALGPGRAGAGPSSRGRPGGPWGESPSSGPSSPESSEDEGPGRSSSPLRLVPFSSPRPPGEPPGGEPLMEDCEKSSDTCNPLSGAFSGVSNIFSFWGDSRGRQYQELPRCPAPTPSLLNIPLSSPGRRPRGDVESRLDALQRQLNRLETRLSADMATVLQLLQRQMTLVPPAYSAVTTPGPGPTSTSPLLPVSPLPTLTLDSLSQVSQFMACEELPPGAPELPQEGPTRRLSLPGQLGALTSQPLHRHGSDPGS

| SMILES | hERG current change (%, negative = inhibition) at 10uM [%] |
| --- | --- |
| Cc1[nH]nc2cn[nH]c12 | 3.52 |
| COc1ccc(CNc2ccc([N+](=O)[O-])cn2)cc1 | 7.49 |
| O=C1c2ccccc2C(=O)N1COc1ccc(S(=O)(=O)N2CCOCC2)cc1[N+](=O)[O-] | -22.8 |
| COc1cc(/C=N/NC(=O)CCC(=O)Nc2ccc(F)cc2)ccc1O | 18.2 |
| COc1ccc(N(C(=O)c2ccco2)S(=O)(=O)c2ccccc2)cc1 | -44.3 |
| CC(=O)NC1=NN(C(C)=O)C(c2ccccc2)S1 (stereo not drawn) | 12.4 |
| Cn1c(=O)c2c(nc(CN3CCCCC3)n2CCc2ccccc2)n(C)c1=O | -14.7 |
| CCOc1ccc(C(=O)NC(=S)Nc2cccnc2)cc1[N+](=O)[O-] | -16.1 |
| Cc1ccc(-c2nn(-c3ccccc3)cc2C2CC(c3cccs3)=NN2C(=O)CCCC(=O)O)cc1 (stereo not drawn) | 4.96 |
| Cc1ccccc1-n1c(-c2ccco2)nc2ccccc2c1=O | 1.78 |
| COC(=O)Cc1cc(=O)n(-c2nc3ccccc3s2)[nH]1 | -0.387 |
| C=CCNC(=S)NNC(=O)c1ccc(OCCC)cc1 | 11.7 |
| COc1ccc(Cl)cc1C(=O)N/N=C/c1ccc(N2CCOCC2)cc1 | 10.6 |
| Cc1cccc(OCCCC(=O)Nc2ccc(N(C)C)cc2)c1 | -5.54 |
| CCn1nc(C(=O)OCC(=O)c2ccc3c(c2)OCCO3)c2ccccc2c1=O | -0.922 |
| O=C(CCC1CCN(Cc2ccc(C#CCCO)cc2)CC1)NC1CC1 | -46.7 |
| Cc1cc(C(F)(F)F)n2ncc(-c3cccc(Br)c3)c2n1 | 22.6 |
| CC1(C)Oc2ccc(C(=O)NC3CC3)cc2N(CC(=O)N2CCOCC2)C1=O | 9.27 |
| CCOC(=O)c1c(C)[nH]c(C(=O)COC(=O)C2CC2C)c1C (stereo not drawn) | -2.21 |
| CCOC(=O)N1CCN(C(=O)CN(C2CCCCC2)S(=O)(=O)c2ccc(C)cc2)CC1 | -28.9 |
| S=c1[nH]nc(COc2ccccc2)n1/N=C/c1ccc(Cl)c(Cl)c1 | 26.4 |
| CS(=O)(=O)N1CCCC(C(=O)Nc2ccc3c(c2)OCCO3)C1 (stereo not drawn) | 23.6 |
| O=C(N/C(=C\c1ccco1)C(=O)N1CCCC1)c1ccccc1 | 1.23 |

| SMILES | hERG current change (%, negative = inhibition) at 10uM [%] |
| --- | --- |
| O=C(NCCc1ccccc1)c1ccc(-c2ccc(F)cc2)o1 | -9.42 |
| Br.Cc1nc(C)c(-c2csc(Nc3cccc(O)c3)n2)s1 | 6.25 |
| COCCCNCC(=O)c1c(N)n(Cc2ccccc2)c(=O)n(C)c1=O.O=C(O)C(=O)O | -20.1 |
| COc1ccc(C2=NOC(C(=O)Nc3ccc(C)cc3)C2)cc1OC (stereo not drawn) | -8.68 |
| COc1cc(C2CC(=O)Nc3c2c(=O)nc2c(C)cccn32)cc(OC)c1OC (stereo not drawn) | 18.9 |
| O=[N+]([O-])c1cccc(NC(=S)N2CCc3ccccc32)c1 | -5.19 |
| Cc1cc(-c2ccc(Cl)cc2)n2ncnc2n1 | -6.99 |
| Cn1ccnc1SCC(=O)c1ccc([N+](=O)[O-])cc1 | -14.5 |
| O=C(O)c1ccc(Cl)c(S(=O)(=O)N2CCC(Cc3ccccc3)CC2)c1 | 22.5 |
| Cc1ccc(N(CC(=O)Nc2ccc(C)cc2C)S(=O)(=O)N2CCCC2)cc1 | -28.3 |
| O=C(Cn1nnc2ccccc21)Nc1ccccc1[N+](=O)[O-] | 4.51 |
| CCN(C(=O)COC(=O)c1cccnc1Nc1ccccc1F)C1CCS(=O)(=O)C1 (stereo not drawn) | -9.99 |
| CCOC(=O)c1sc(=S)n(-c2cccc(C(F)(F)F)c2)c1SC | -4.41 |
| COc1cccc(-c2c(C(=O)N/N=C/c3cccnc3)nnn2-c2nonc2N)c1 | 14.8 |
| COc1ccc(NC(=O)c2cccc(Cl)c2)c[n+]1[O-] | 17.1 |
| Cc1ccc(NC(=O)CCC(=O)c2cccs2)nc1 | -0.376 |
| CCc1ccccc1NC(=O)NNC(=O)CCc1ccccc1 | 7.74 |
| Cc1nn(C(=O)c2cc3sccc3[nH]2)c(C)c1C | 7.83 |
| CSc1ncccc1C(=O)Nc1nccs1 | -22.8 |
| CC(=O)Nc1ccc(NC(=O)C2CCCN2C(=O)Nc2ccc(F)cc2)cc1 (stereo not drawn) | 3.44 |
| O=C1NC(c2cccc(Cl)c2)Nc2ccccc21 (stereo not drawn) | 21.8 |
| O=C(NCCN1C(=O)S/C(=C\c2cccs2)C1=O)c1ccc(=O)[nH]c1 | -15.5 |
